Data: PubChem BioAssay (Tox21)
Records with an inconclusive call do not appear. Unless noted, the call rests on the fitted dose curve. A structure can be active in one record and inactive in another. A number of entries come with more than one value. This list holds those alone. The source may hold further records. The values listed for one entry repeat one measurement in other runs, samples, wells, individuals or studies. Brackets tell where a record comes from. Letters count within one entry.

Assays:
[1] = biological target: KiSS-1 receptor (Homo sapiens) (UniProt Q969F8); assay: Human kisspeptin (KISS1R) small molecule agonists, calcium flux assay in KISS1R-HEK293 cells (AID 1920064; active means well fitted activation curve with a large enough effect in the repeat runs)
From the text: (§1) National Center for Advancing Translational Sciences [NCATS]
(§2) Division of Preclinical Innovation [DPI]
(§3) U.S. Environmental Protection Agency [EPA]
(§4) National Institutes of Environmental Health Sciences [NIEHS]
(§5) National Toxicology Program [NTP]
(§6) U.S. Food and Drug Administration [FDA]
Kisspeptin and its receptor KISS1R play key roles in mammalian reproduction due to their involvement in the onset of puberty and control of the hypothalamic-pituitary-gonadal axis such as regulates GnRH release from the hypothalamus. […] Cell-based KISS1R-HEK293 assay is using HEK293 cells that have been genetically engineered to express the human KISS1R, which activity can be measured by calcium signaling. A compound/drug can activate (agonist) KISS1R that can be monitored by levels of intracellular calcium.
KISS1R-HEK293 cells developed by Codex Corp contain human KISS1R gene, which was stably integrated into HEK 293 cells. The compound activation can be detected by fluorescence intensity via calcium flux assay. […]
KISS1R-Hek293 cells were dispensed at 1500 cells/4uL/well in 1536-well black wall/clear bottom plates using a multidrop dispenser. […] The fluorescence intensity in the plates was measured using FDSS 7000EX kinetic plate reader with a filter set of Ex/Em=480/540 for 3 min at 1 sec intervals. […] Each test compound was measured at 15 concentrations and in triplicates.

[2] = p53 small molecule agonists, cell-based qHTS assay with human liver microsomes (AID 1963577);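 on activation: p53 response element beta-lactamase reporter cells with liver microsomes plus NADPH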
From the text: as §1, §2, §3, §4, §5, §6
p53, a tumor suppressor protein, is activated following cellular insult, including DNA damage and other cellular stresses. The activation of p53 regulates cell fate by inducing DNA repair, cell cycle arrest, apoptosis, or cellular senescence. The activation of p53, therefore, is a good indicator of DNA damage and other cellular stresses. […] The activation of the reporter gene under culture conditions can be detected by fluorescence intensity.
Tox21 Assay Protocol Summary:
The p53RE-bla cells were dispensed at 4,000cells/3ul/well in 1536-well black-clear bottom plates. After the assay plates were incubated at 37 C, 5% CO2 incubator for 5 hours, 23 nL of compounds dissolved in DMSO, positive controls or DMSO only was transferred to the assay plate. Following compound addition, 3 uL of human liver microsomes (XenoTech, Kansas City, KS) at final concentration of 0.5 mg/mL and 1uL of Beta-Nicotinamide adenine dinucleotide 2-phosphate (NADPH) at final concentration of 0.5 mg/mL were transferred to the assay plate. The plates were incubated at 37 C for 16 hours. […]

[3] = cAMP Responsive Elements (CRE) small molecule agonists, cell-based qHTS assay (AID 1963590)
Outline: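 CRE-bla HEK 293T cells in DMEM with 10% dialyzed FBS, NEAA, pyruvate and 25 mM HEPES were plated 18 h at 37 C/5% CO2, then exposed to compounds in DMSO for 3 h before LiveBLAzer B/G FRET substrate addition.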

[4] = cAMP Responsive Elements (CRE) small molecule antagonists, cell-based qHTS assay (AID 1963591; active means well fitted inhibition curve with a large enough effect in the signal ratio in the repeat runs, not every such curve was filed as active; the % refers to the signal ratio)
Outline: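 CRE-bla HEK293T cells were plated 18 h at 37 °C/5% CO2, pinned with compound in DMSO, then stimulated with NKH477 at 0.25 uM final for 3 h. LiveBLAzer B/G FRET substrate was added and plates incubated 2 h at room temperature.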
Potency means the concentration at half of the fitted maximal effect.

Chain of UniProt Q969F8 (Q969F8 whole entry, looked up): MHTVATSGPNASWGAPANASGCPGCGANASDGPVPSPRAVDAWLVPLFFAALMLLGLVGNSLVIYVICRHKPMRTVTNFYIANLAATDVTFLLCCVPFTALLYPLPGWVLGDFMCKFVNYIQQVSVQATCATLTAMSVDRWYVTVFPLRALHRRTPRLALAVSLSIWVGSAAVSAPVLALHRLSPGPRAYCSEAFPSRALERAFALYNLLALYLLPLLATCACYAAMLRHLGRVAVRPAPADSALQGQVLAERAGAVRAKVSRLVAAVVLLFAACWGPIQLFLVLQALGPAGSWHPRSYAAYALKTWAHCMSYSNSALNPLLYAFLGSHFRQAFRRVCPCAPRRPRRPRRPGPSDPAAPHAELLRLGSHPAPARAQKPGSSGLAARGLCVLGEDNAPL

For `CS(=O)(=O)OCCCCOS(C)(=O)=O`, the Potency [1] was “active: 8.74 µM [sample A] and inactive [sample B] and inactive [sample C]”.

For `CCCCOCCOCCSC#N`, the Potency [2] was “active: 34.2 µM [sample A] and inactive [sample B]”.

With `CCCCCCCCCCCCCC(=O)O` the Potency [2] was “inactive [sample A] and active: 40.8 µM [sample B]”.

With `C[C@]12C[C@H](O)[C@H]3[C@@H](CCC4=CC(=O)CC[C@@]43C)[C@@H]1CC[C@@H]2C(=O)CO` the Potency [3] was “active: 13.7 µM [sample A] and inactive [sample B]”.

For `CC1=C(/C=C/C(C)=C/C=C/C(C)=C/C(=O)Nc2ccc(O)cc2)C(C)(C)CCC1`, the Potency [4] was “active: 70.3 µM [sample A] and inactive [sample B]”.

In the case of `CCCCCC/C=C/CCCCCCCC(=O)O`, the Potency [4] is reported as “inactive [sample A] and active: 11.4 µM [sample B]”.
